The values below come from publication PMC12820563, “FoxP3 forms a head-to-head dimer in vivo and stabilizes its multimerization on adjacent microsatellites”.

The other results are listed elsewhere or left out.

The target of the experiment is T1, MBP-FoxP1dN (Mus musculus, UniProt P58462 326-579).
T1 sequence: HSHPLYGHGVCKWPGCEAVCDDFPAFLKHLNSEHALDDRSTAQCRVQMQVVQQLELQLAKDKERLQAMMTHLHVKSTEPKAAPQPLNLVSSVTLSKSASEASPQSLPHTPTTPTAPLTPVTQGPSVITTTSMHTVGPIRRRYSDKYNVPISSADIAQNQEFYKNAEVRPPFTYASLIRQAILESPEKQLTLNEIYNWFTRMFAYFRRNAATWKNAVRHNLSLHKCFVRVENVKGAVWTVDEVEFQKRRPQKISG
Nature of the experiment: PD-seq (MBP pull-down with sequencing); 20 mM Tris-HCl pH 7.5, 100 mM NaCl, 1.5 mM MgCl2, 0.4 uM protein, 0.1 uM dsDNA library, 30 min, room temperature, amylose pull-down; high values mean tight binding. The conditions noted are these: protein: recombinant; tags: His6-MBP; chain copies: 2; dsDNA, one strand shown. Put shortly:
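A fragment of mouse FoxP3 or FoxP1 without its N-terminus, carrying a His6-MBP tag and produced in E. coli, was combined at 0.4 µM with a 0.1 µM degenerate double-stranded DNA library filled in with Klenow. The mixture sat for 30 min at room temperature in Tris pH 7.5 buffer containing NaCl and MgCl2. Protein–DNA complexes were captured on amylose resin, washed three times, and the DNA was freed with proteinase K, barcoded by PCR and sequenced on Illumina. Binding is expressed as reads-per-million enrichment of pull-down over input, with replicates pooled.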
Regarding “GATGATTGTTCTCCCAGCTGATGAATTACAAAACTCGAGTAAACAAATTTTCCTAATCTTTCTGTTCAAGCGCCATCTAC”, the binding signal was 1.24 RPM ratio (pull-down/input).

“GATGATTGTTCTCCCAGCTGATGAATTGCTAGATTCGAGTAAACAAATTTTCCTAATCTTTCTGTTCAAGCGCCATCTAC”: the binding signal is 1.09 RPM ratio (pull-down/input).

Consider “GATGATTGTTCTCCCAGCTGATGAATTACTCGTCTCGAGTAAACAAATTTTCCTAATCTTTCTGTTCAAGCGCCATCTAC”, for which the binding signal is 0.904 RPM ratio (pull-down/input).

Consider “GATGATTGTTCTCCCAGCTGATGAATTCATGGATTCGAGTAAACAAATTTTCCTAATCTTTCTGTTCAAGCGCCATCTAC”, for which the binding signal is 0.883 RPM ratio (pull-down/input).

Turning to “GATGATTGTTCTCCCAGCTGATGAATTTGTAGTGTCGAGTAAACAAATTTTCCTAATCTTTCTGTTCAAGCGCCATCTAC”, the binding signal was 1.2 RPM ratio (pull-down/input).

Take “GATGATTGTTCTCCCAGCTGATGAATTATGTTTGTCGAGTAAACAAATTTTCCTAATCTTTCTGTTCAAGCGCCATCTAC”: the binding signal is 2.67 RPM ratio (pull-down/input).

In the case of “GATGATTGTTCTCCCAGCTGATGAATTTTTGGAATCGAGTAAACAAATTTTCCTAATCTTTCTGTTCAAGCGCCATCTAC”, the binding signal was 0.943 RPM ratio (pull-down/input).

As for “GATGATTGTTCTCCCAGCTGATGAATTCACGTTGTCGAGTAAACAAATTTTCCTAATCTTTCTGTTCAAGCGCCATCTAC”, the binding signal is 1.11 RPM ratio (pull-down/input).

In the case of “GATGATTGTTCTCCCAGCTGATGAATTAAGGCACTCGAGTAAACAAATTTTCCTAATCTTTCTGTTCAAGCGCCATCTAC”, the binding signal was 0.949 RPM ratio (pull-down/input).

For “GATGATTGTTCTCCCAGCTGATGAATTTTGTTGGTCGAGTAAACAAATTTTCCTAATCTTTCTGTTCAAGCGCCATCTAC”, the binding signal is 2.26 RPM ratio (pull-down/input).

Consider “GATGATTGTTCTCCCAGCTGATGAATTCCTCACATCGAGTAAACAAATTTTCCTAATCTTTCTGTTCAAGCGCCATCTAC”, for which the binding signal was 0.862 RPM ratio (pull-down/input).

Consider “GATGATTGTTCTCCCAGCTGATGAATTAGGGCGGTCGAGTAAACAAATTTTCCTAATCTTTCTGTTCAAGCGCCATCTAC”, for which the binding signal was 0.824 RPM ratio (pull-down/input).

Regarding “GATGATTGTTCTCCCAGCTGATGAATTTGGTTAGTCGAGTAAACAAATTTTCCTAATCTTTCTGTTCAAGCGCCATCTAC”, the binding signal is 0.953 RPM ratio (pull-down/input).

For “GATGATTGTTCTCCCAGCTGATGAATTACTGATCTCGAGTAAACAAATTTTCCTAATCTTTCTGTTCAAGCGCCATCTAC”, the binding signal is 0.94 RPM ratio (pull-down/input).

For “GATGATTGTTCTCCCAGCTGATGAATTACTTTGATCGAGTAAACAAATTTTCCTAATCTTTCTGTTCAAGCGCCATCTAC”, the binding signal is 1.07 RPM ratio (pull-down/input).

With “GATGATTGTTCTCCCAGCTGATGAATTACAGCACTCGAGTAAACAAATTTTCCTAATCTTTCTGTTCAAGCGCCATCTAC”, the binding signal was 1.05 RPM ratio (pull-down/input).

For the sequence “GATGATTGTTCTCCCAGCTGATGAATTTAATCAGTCGAGTAAACAAATTTTCCTAATCTTTCTGTTCAAGCGCCATCTAC”, the binding signal is 0.906 RPM ratio (pull-down/input).

For “GATGATTGTTCTCCCAGCTGATGAATTGATCTCCTCGAGTAAACAAATTTTCCTAATCTTTCTGTTCAAGCGCCATCTAC”, the binding signal is 0.923 RPM ratio (pull-down/input).

Consider “GATGATTGTTCTCCCAGCTGATGAATTGTGTGTGTCGAGTAAACAAATTTTCCTAATCTTTCTGTTCAAGCGCCATCTAC”, for which the binding signal is 1.52 RPM ratio (pull-down/input).

As to “GATGATTGTTCTCCCAGCTGATGAATTTATCCGATCGAGTAAACAAATTTTCCTAATCTTTCTGTTCAAGCGCCATCTAC”, the binding signal is 0.999 RPM ratio (pull-down/input).

As to “GATGATTGTTCTCCCAGCTGATGAATTTGGTAATTCGAGTAAACAAATTTTCCTAATCTTTCTGTTCAAGCGCCATCTAC”, the binding signal is 1.09 RPM ratio (pull-down/input).

As to “GATGATTGTTCTCCCAGCTGATGAATTCTCAAATTCGAGTAAACAAATTTTCCTAATCTTTCTGTTCAAGCGCCATCTAC”, the binding signal was 0.911 RPM ratio (pull-down/input).

Take “GATGATTGTTCTCCCAGCTGATGAATTATCAGCGTCGAGTAAACAAATTTTCCTAATCTTTCTGTTCAAGCGCCATCTAC”: the binding signal is 0.948 RPM ratio (pull-down/input).

In the case of “GATGATTGTTCTCCCAGCTGATGAATTTGGATCGTCGAGTAAACAAATTTTCCTAATCTTTCTGTTCAAGCGCCATCTAC”, the binding signal was 0.841 RPM ratio (pull-down/input).

In the case of “GATGATTGTTCTCCCAGCTGATGAATTTTATGGCTCGAGTAAACAAATTTTCCTAATCTTTCTGTTCAAGCGCCATCTAC”, the binding signal was 0.839 RPM ratio (pull-down/input).

In the case of “GATGATTGTTCTCCCAGCTGATGAATTGCCGAAATCGAGTAAACAAATTTTCCTAATCTTTCTGTTCAAGCGCCATCTAC”, the binding signal is 1.02 RPM ratio (pull-down/input).

As to “GATGATTGTTCTCCCAGCTGATGAATTTTATCCATCGAGTAAACAAATTTTCCTAATCTTTCTGTTCAAGCGCCATCTAC”, the binding signal is 1.04 RPM ratio (pull-down/input).

For “GATGATTGTTCTCCCAGCTGATGAATTCACGAGCTCGAGTAAACAAATTTTCCTAATCTTTCTGTTCAAGCGCCATCTAC”, the binding signal was 0.831 RPM ratio (pull-down/input).

“GATGATTGTTCTCCCAGCTGATGAATTACATTCCTCGAGTAAACAAATTTTCCTAATCTTTCTGTTCAAGCGCCATCTAC”: the binding signal was 1.2 RPM ratio (pull-down/input).

With “GATGATTGTTCTCCCAGCTGATGAATTACGGCCGTCGAGTAAACAAATTTTCCTAATCTTTCTGTTCAAGCGCCATCTAC”, the binding signal is 0.888 RPM ratio (pull-down/input).

On to “GATGATTGTTCTCCCAGCTGATGAATTGTCAAACTCGAGTAAACAAATTTTCCTAATCTTTCTGTTCAAGCGCCATCTAC”, for which the binding signal is 1.02 RPM ratio (pull-down/input).

With “GATGATTGTTCTCCCAGCTGATGAATTGAGCATCTCGAGTAAACAAATTTTCCTAATCTTTCTGTTCAAGCGCCATCTAC”, the binding signal was 1.01 RPM ratio (pull-down/input).
